# The other results are listed elsewhere or left out.
# Tests used:
# Assay in all cases: glycan array binding signal (z-score within array); higher = stronger binding
# Details in all cases: glycan notation: IUPAC condensed, linker removed
# [1] = target: Gal(b1-4)GlcNAc(b1-2)[Gal(b1-4)GlcNAc(b1-6)]Man(a1-6)[GlcNAc(b1-4)][Gal(b1-4)GlcNAc(b1-2)Man(a1-3)]Man(b1-4)GlcNAc(b1-4)GlcNAc
# Outline: (§1)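 Columns mapping to the same glycan were averaged after glycan names were converted to IUPAC-condensed notation. The data come from 3228 arrays in the Consortium for Functional Glycomics database, limited to those with an available protein sequence. Binding is reported as a within-array Z-score averaged across arrays of one protein sequence and across linkers.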
# [2] = target: Gal(b1-4)GlcNAc(b1-2)[Gal(b1-4)GlcNAc(b1-6)]Man(a1-6)[GlcNAc(b1-4)][Gal(b1-4)GlcNAc(b1-2)[Gal(b1-4)GlcNAc(b1-4)]Man(a1-3)]Man(b1-4)GlcNAc(b1-4)[Fuc(a1-6)]GlcNAc
# Outline: as §1
# [3] = target: Gal(b1-4)GlcNAc(b1-3)Gal(b1-3)GalNAc
# Outline: as §1
# [4] = target: Gal(b1-4)GlcNAc(b1-3)Gal(b1-3)GlcNAc
# Outline: as §1
# [5] = target: Gal(b1-4)GlcNAc(b1-3)Gal(b1-4)Glc
# Outline: as §1
# [6] = target: Gal(b1-4)GlcNAc(b1-3)Gal(b1-4)GlcNAc
# Outline: as §1
# [7] = target: Gal(b1-4)GlcNAc(b1-3)Gal(b1-4)GlcNAc(b1-2)Man(a1-3)[Gal(b1-4)GlcNAc(b1-3)Gal(b1-4)GlcNAc(b1-2)Man(a1-6)]Man(b1-4)GlcNAc(b1-4)GlcNAc
# Outline: as §1
# [8] = target: Gal(b1-4)GlcNAc(b1-3)Gal(b1-4)GlcNAc(b1-2)Man(a1-3)[Gal(b1-4)GlcNAc(b1-3)Gal(b1-4)GlcNAc(b1-2)Man(a1-6)]Man(b1-4)GlcNAc(b1-4)[Fuc(a1-6)]GlcNAc
# Outline: as §1
# [9] = target: Gal(b1-4)GlcNAc(b1-3)Gal(b1-4)GlcNAc(b1-2)[Gal(b1-4)GlcNAc(b1-3)Gal(b1-4)GlcNAc(b1-6)]Man(a1-6)[Gal(b1-4)GlcNAc(b1-3)Gal(b1-4)GlcNAc(b1-2)Man(a1-3)]Man(b1-4)GlcNAc(b1-4)GlcNAc
# Outline: as §1
# [10] = target: Gal(b1-4)GlcNAc(b1-3)Gal(b1-4)GlcNAc(b1-2)[Gal(b1-4)GlcNAc(b1-3)Gal(b1-4)GlcNAc(b1-6)]Man(a1-6)[Gal(b1-4)GlcNAc(b1-3)Gal(b1-4)GlcNAc(b1-2)Man(a1-3)]Man(b1-4)GlcNAc(b1-4)[Fuc(a1-6)]GlcNAc
# Outline: as §1
# [11] = target: Gal(b1-4)GlcNAc(b1-3)Gal(b1-4)GlcNAc(b1-3)Gal(b1-4)GlcNAc
# Outline: as §1
# [12] = target: Gal(b1-4)GlcNAc(b1-3)Gal(b1-4)GlcNAc(b1-3)Gal(b1-4)GlcNAc(b1-2)Man(a1-3)[Gal(b1-4)GlcNAc(b1-3)Gal(b1-4)GlcNAc(b1-3)Gal(b1-4)GlcNAc(b1-2)Man(a1-6)]Man(b1-4)GlcNAc(b1-4)GlcNAc
# Outline: as §1
# [13] = target: Gal(b1-4)GlcNAc(b1-3)Gal(b1-4)GlcNAc(b1-3)Gal(b1-4)GlcNAc(b1-2)Man(a1-3)[Gal(b1-4)GlcNAc(b1-3)Gal(b1-4)GlcNAc(b1-3)Gal(b1-4)GlcNAc(b1-2)Man(a1-6)]Man(b1-4)GlcNAc(b1-4)[Fuc(a1-6)]GlcNAc
# Outline: as §1
# [14] = target: Gal(b1-4)GlcNAc(b1-3)Gal(b1-4)GlcNAc(b1-3)Gal(b1-4)GlcNAc(b1-2)[Gal(b1-4)GlcNAc(b1-3)Gal(b1-4)GlcNAc(b1-3)Gal(b1-4)GlcNAc(b1-6)]Man(a1-6)[Gal(b1-4)GlcNAc(b1-3)Gal(b1-4)GlcNAc(b1-3)Gal(b1-4)GlcNAc(b1-2)Man(a1-3)]Man(b1-4)GlcNAc(b1-4)[Fuc(a1-6)]GlcNAc
# Outline: as §1
# [15] = target: Gal(b1-4)GlcNAc(b1-3)Gal(b1-4)GlcNAc(b1-3)Gal(b1-4)GlcNAc(b1-3)Gal(b1-4)GlcNAc(b1-2)Man(a1-3)[Gal(b1-4)GlcNAc(b1-3)Gal(b1-4)GlcNAc(b1-3)Gal(b1-4)GlcNAc(b1-3)Gal(b1-4)GlcNAc(b1-2)Man(a1-6)]Man(b1-4)GlcNAc(b1-4)GlcNAc
# Outline: as §1
# [16] = target: Gal(b1-4)GlcNAc(b1-3)Gal(b1-4)GlcNAc(b1-3)Gal(b1-4)GlcNAc(b1-3)Gal(b1-4)GlcNAc(b1-2)Man(a1-3)[Gal(b1-4)GlcNAc(b1-3)Gal(b1-4)GlcNAc(b1-3)Gal(b1-4)GlcNAc(b1-3)Gal(b1-4)GlcNAc(b1-2)Man(a1-6)]Man(b1-4)GlcNAc(b1-4)[Fuc(a1-6)]GlcNAc
# Outline: as §1
# [17] = target: Gal(b1-4)GlcNAc(b1-3)Gal(b1-4)GlcNAc(b1-3)Gal(b1-4)GlcNAc(b1-3)Gal(b1-4)GlcNAc(b1-2)[Gal(b1-4)GlcNAc(b1-3)Gal(b1-4)GlcNAc(b1-3)Gal(b1-4)GlcNAc(b1-3)Gal(b1-4)GlcNAc(b1-6)]Man(a1-6)[Gal(b1-4)GlcNAc(b1-3)Gal(b1-4)GlcNAc(b1-3)Gal(b1-4)GlcNAc(b1-3)Gal(b1-4)GlcNAc(b1-2)Man(a1-3)]Man(b1-4)GlcNAc(b1-4)[Fuc(a1-6)]GlcNAc
# Outline: as §1
# [18] = target: Gal(b1-4)GlcNAc(b1-3)Gal(b1-4)GlcNAc(b1-3)Gal(b1-4)GlcNAc(b1-3)Gal(b1-4)GlcNAc(b1-3)Gal(b1-4)GlcNAc(b1-2)Man(a1-3)[Gal(b1-4)GlcNAc(b1-3)Gal(b1-4)GlcNAc(b1-3)Gal(b1-4)GlcNAc(b1-3)Gal(b1-4)GlcNAc(b1-3)Gal(b1-4)GlcNAc(b1-2)Man(a1-6)]Man(b1-4)GlcNAc(b1-4)GlcNAc
# Outline: as §1
# [19] = target: Gal(b1-4)GlcNAc(b1-3)Gal(b1-4)GlcNAc(b1-3)Gal(b1-4)GlcNAc(b1-3)Gal(b1-4)GlcNAc(b1-3)Gal(b1-4)GlcNAc(b1-2)Man(a1-3)[Gal(b1-4)GlcNAc(b1-3)Gal(b1-4)GlcNAc(b1-3)Gal(b1-4)GlcNAc(b1-3)Gal(b1-4)GlcNAc(b1-3)Gal(b1-4)GlcNAc(b1-2)Man(a1-6)]Man(b1-4)GlcNAc(b1-4)[Fuc(a1-6)]GlcNAc
# Outline: as §1
# [20] = target: Gal(b1-4)GlcNAc(b1-3)Gal(b1-4)GlcNAc(b1-3)Gal(b1-4)GlcNAc(b1-3)Gal(b1-4)GlcNAc(b1-3)Gal(b1-4)GlcNAc(b1-2)[Gal(b1-4)GlcNAc(b1-3)Gal(b1-4)GlcNAc(b1-3)Gal(b1-4)GlcNAc(b1-3)Gal(b1-4)GlcNAc(b1-3)Gal(b1-4)GlcNAc(b1-6)]Man(a1-6)[Gal(b1-4)GlcNAc(b1-3)Gal(b1-4)GlcNAc(b1-3)Gal(b1-4)GlcNAc(b1-3)Gal(b1-4)GlcNAc(b1-3)Gal(b1-4)GlcNAc(b1-2)Man(a1-3)]Man(b1-4)GlcNAc(b1-4)[Fuc(a1-6)]GlcNAc
# Outline: as §1
# [21] = target: Gal(b1-4)GlcNAc(b1-3)Gal(b1-4)GlcNAc(b1-3)Gal(b1-4)GlcNAc(b1-3)Gal(b1-4)GlcNAc(b1-3)Gal(b1-4)GlcNAc(b1-3)Gal(b1-4)GlcNAc(b1-2)Man(a1-3)[Gal(b1-4)GlcNAc(b1-3)Gal(b1-4)GlcNAc(b1-3)Gal(b1-4)GlcNAc(b1-3)Gal(b1-4)GlcNAc(b1-3)Gal(b1-4)GlcNAc(b1-3)Gal(b1-4)GlcNAc(b1-2)Man(a1-6)]Man(b1-4)GlcNAc(b1-4)GlcNAc
# Outline: as §1
# [22] = target: Gal(b1-4)GlcNAc(b1-3)Gal(b1-4)GlcNAc(b1-3)GalNAc
# Outline: as §1
# [23] = target: Gal(b1-4)GlcNAc(b1-3)Gal(b1-4)GlcNAc(b1-3)[Gal(b1-4)GlcNAc(b1-3)Gal(b1-4)GlcNAc(b1-6)]GalNAc
# Outline: as §1
binder,measurement,setting,value
"LSECtin (Homo sapiens), Q6UXB4 (protein) MDTTRYSKWGGSSEEVPGGPWGRWVHWSRRPLFLALAVLVTTVLWAVILSILLSKASTERAALLDGHDLLRTNASKQTAALGALKEEVGDCHSCCSGTQAQLQTTRAELGEAQAKLMEQESALRELRERVTQGLAEAGRGREDVRTELFRALEAVRLQNNSCEPCPTSWLSFEGSCYFFSVPKTTWAAAQDHCADASAHLVIVGGLDEQGFLTRNTRGRGYWLGLRAVRHLGKVQGYQWVDGVSLSFSHWNQGEPNDAWGRENCVMMLHTGLWNDAPCDSEKDGWICEKRHNC",glycan array binding signal (z-score),[1],-0.138
same,glycan array binding signal (z-score),[2],-0.136
same,glycan array binding signal (z-score),[3],-0.141
same,glycan array binding signal (z-score),[4],-0.189
same,glycan array binding signal (z-score),[5],-0.174
same,glycan array binding signal (z-score),[6],-0.154
same,glycan array binding signal (z-score),[7],-0.13
same,glycan array binding signal (z-score),[8],-0.125
same,glycan array binding signal (z-score),[9],-0.139
same,glycan array binding signal (z-score),[10],-0.135
same,glycan array binding signal (z-score),[11],-0.119
same,glycan array binding signal (z-score),[12],-0.123
same,glycan array binding signal (z-score),[13],-0.132
same,glycan array binding signal (z-score),[14],-0.131
same,glycan array binding signal (z-score),[15],-0.133
same,glycan array binding signal (z-score),[16],-0.123
same,glycan array binding signal (z-score),[17],-0.121
same,glycan array binding signal (z-score),[18],-0.138
same,glycan array binding signal (z-score),[19],-0.115
same,glycan array binding signal (z-score),[20],-0.124
same,glycan array binding signal (z-score),[21],-0.131
same,glycan array binding signal (z-score),[22],-0.131
same,glycan array binding signal (z-score),[23],-0.125

# — the supplement of paper PMC8728848
